# The whole screen tested about 310,000 compounds, of which about 2,200 (0.71%) showed an effect of 50% or more. Effects have a minus sign here. The list shows a part of the results.
# Molecular target: human ether-à-go-go-related gene (hERG) potassium channel (human, UniProt Q12809)
# Experiment: primary screen, population patch clamp on CHO cells stably expressing hERG
# human ether-à-go-go-related gene (hERG) potassium channel, sequence (Q12809 whole entry, looked up): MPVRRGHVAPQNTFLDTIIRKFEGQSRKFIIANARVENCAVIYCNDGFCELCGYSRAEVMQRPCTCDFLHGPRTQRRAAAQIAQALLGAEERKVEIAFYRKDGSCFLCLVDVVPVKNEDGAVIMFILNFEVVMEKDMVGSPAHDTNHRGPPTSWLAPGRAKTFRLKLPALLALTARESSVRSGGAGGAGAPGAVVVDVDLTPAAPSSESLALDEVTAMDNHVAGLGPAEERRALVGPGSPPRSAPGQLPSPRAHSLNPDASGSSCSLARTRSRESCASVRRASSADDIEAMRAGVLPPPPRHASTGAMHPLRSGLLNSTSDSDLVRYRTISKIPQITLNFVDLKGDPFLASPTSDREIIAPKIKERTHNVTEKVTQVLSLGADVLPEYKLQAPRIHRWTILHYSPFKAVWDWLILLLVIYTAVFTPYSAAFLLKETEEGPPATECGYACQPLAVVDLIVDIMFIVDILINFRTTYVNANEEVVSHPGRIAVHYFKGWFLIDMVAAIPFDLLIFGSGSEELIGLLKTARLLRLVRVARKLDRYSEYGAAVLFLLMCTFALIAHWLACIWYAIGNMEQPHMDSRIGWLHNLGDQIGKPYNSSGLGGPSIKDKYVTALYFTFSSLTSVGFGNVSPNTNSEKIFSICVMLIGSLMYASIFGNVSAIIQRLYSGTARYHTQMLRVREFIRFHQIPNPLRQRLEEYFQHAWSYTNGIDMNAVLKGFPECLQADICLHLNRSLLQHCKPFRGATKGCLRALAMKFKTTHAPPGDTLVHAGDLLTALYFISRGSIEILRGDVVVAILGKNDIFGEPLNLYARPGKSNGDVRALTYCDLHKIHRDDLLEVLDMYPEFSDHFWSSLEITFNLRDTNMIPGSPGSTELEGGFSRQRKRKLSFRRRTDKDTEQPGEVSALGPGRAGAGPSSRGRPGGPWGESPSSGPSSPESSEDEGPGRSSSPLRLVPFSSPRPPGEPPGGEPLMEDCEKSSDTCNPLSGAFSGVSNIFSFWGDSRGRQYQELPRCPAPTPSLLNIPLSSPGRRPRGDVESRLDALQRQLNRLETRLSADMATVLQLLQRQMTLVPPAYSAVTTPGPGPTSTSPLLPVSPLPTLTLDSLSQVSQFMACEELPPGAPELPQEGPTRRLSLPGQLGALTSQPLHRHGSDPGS
row,Compound,"hERG current change (%, negative = inhibition) at 1uM"
1,CCOC(=O)c1c(C)n(-c2ccc(OC)cc2)c2ccc(O)c(CN(C)C)c12.Cl,1.29%
2,O=S(=O)(Nn1cnnc1)c1ccc2ccccc2c1,20.5%
3,Cc1cc2cc(CNC(=O)COc3ccccc3)ccc2n1C,5.6%
4,CN(CC(=O)Nc1ccc(C#N)cc1)CC(=O)Nc1ccc(N2CCOCC2)cc1,6.03%
5,Cc1cc(C(c2cc(C)c(N)c(C)c2)c2ccco2)cc(C)c1N,6.25%
6,O=S(=O)(c1ccc2ccccc2c1)N1CCN(S(=O)(=O)N2CCCCC2)CC1,-5.1%
7,Cc1cc(C)cc(NC(=O)CSc2nnc(CNC(=O)c3cccs3)o2)c1,6.1%
8,Cc1cc(/C=C(\C#N)C(=O)NC2CCCCCC2)c(C)[nH]1,11.3%
9,O=C1c2ccccc2C(=O)N1CSc1ncccn1,1.65%
10,COc1cc(/C=C(\C#N)C(=O)NCc2cccs2)ccc1O,21.1%
11,CNC(=O)C(=O)Nc1c(C)cc(C)cc1C,18.7%
12,CCC(=O)N(CCC1(C(C)C)CCOC(C)(C)C1)C(C)c1cccs1 (stereo not shown),10.3%
13,C=CCN1C(=O)C(O)(CC(=O)c2ccc(-n3cccc3)cc2)c2ccccc21 (stereo not shown),-3.29%
14,COC(=O)C1=C(c2ccc(F)cc2OCc2ccccc2)C[C@@H]2CC[C@H]1N2C(=O)NC(C)C,8.04%
15,Cc1oc(=O)c(NC(=O)c2ccccc2)cc1C(=O)c1ccccc1,10.9%
16,COc1cccc(CNC(=O)CSCc2cnn(-c3ccccc3)c2-n2cccc2)c1,-4.57%
17,Oc1ccc(/C(Cc2ccccn2)=N\Nc2ccccc2)c(O)c1,0.966%
18,COc1ccc(CN(C(=O)COc2ccccc2)c2ccccc2C(=O)O)cc1,22%
19,COC(=O)c1ccc(OC)c(Cn2c(=O)n(C)c(=O)c3ccccc32)c1,10.9%
20,COc1cc(Br)cc(CN2CCN(C=O)CC2)c1O,7.81%
21,CN(C)CCn1c(=O)n(Cc2ccccc2)c(=O)c2c3c(sc21)CCCCC3,6.62%
22,CC(=O)Nc1ccc(S(=O)(=O)N2CCC(C(=O)NCc3ccncc3)CC2)cc1,15.1%

row,Compound,"hERG current change (%, negative = inhibition) at 1uM"
1,CCc1noc(C)c1C(=O)Nc1cc(S(=O)(=O)N(CC)CC)ccc1N1CCOCC1,2.71%
2,O=C(Nc1ccccn1)C1CCN(S(=O)(=O)c2cccc3nonc23)CC1,2.37%
3,Cc1ccc(CCSc2ccc(F)cc2)cn1.O=C(O)C(=O)O,9.97%
4,O=C1CC(=O)N2N=C(c3ccc([N+](=O)[O-])cc3)SC2=N1,8.94%
5,CC(C(=O)N=Nc1c(O)[nH]c2ccccc12)n1cnc2ccccc2c1=O (stereo not shown),8.48%
6,CCOC(=O)CCCNC(=O)COC(=O)c1cccc(C)c1O,14%
7,Fc1ccc(-c2cc3nc(-c4ccccc4)cc(N4CCOCC4)n3n2)cc1,2.46%
8,COC(=O)CCc1nc2ccccc2nc1OC,16.6%
9,CC(=O)NCC(=O)OCC(=O)c1ccc(C)cc1,14.4%
10,CC1CCN(S(=O)(=O)c2ccc3c(c2)N(CC(=O)NCCCN2CCCC(C)C2)C(=O)CO3)CC1 (stereo not shown),13.6%
11,CC(C)N1CCC(=NNC(=O)c2ccc(Br)o2)CC1,8.02%
12,Cc1ccc2cc(CCNC(=O)c3cccc([N+](=O)[O-])c3)c(=O)[nH]c2c1,4.13%
13,CCOc1ccc(OCc2ccc(C(=O)NCC3CCCO3)o2)cc1 (stereo not shown),7.5%
14,O=C(C(=O)N1CCN(c2ccccc2Cl)CC1)c1c[nH]c2ccccc12,15.9%
15,COCCNC(=O)[C@@]1(Cc2ccccc2)C=C[C@@H](C)N1C(C)=O,9.59%
16,O=C(COc1ccc(Br)cc1)N1CCOCC1,7.32%
17,COc1ccc(OC)c(/C(O)=C/C(=O)C(=O)Nc2cc(C)cc(C)c2)c1,9.27%
18,Cc1ccc(CNC(=O)Cc2ccc(-c3ccccc3)cc2)cc1,-6.67%
19,O=C(CCn1cnc(-c2ccccc2)c1-c1ccccc1)N/N=C/c1ccccc1O,9.24%
20,COc1ccc(C2C(C#N)=C(N)N(c3ccccc3C#N)C3=C2C(=O)CCC3)cc1CN1CCCC1 (stereo not shown),10.2%
21,CCOc1ccc(-c2nnn(CC(=O)NCc3ccc(C)cc3)n2)cc1,15.8%
22,Cc1cnc(C)c(N2CCN(Cc3nc(-c4ccccc4)no3)CC2)n1,9.35%

row,Compound,"hERG current change (%, negative = inhibition) at 1uM"
1,Fc1ccccc1NC(=S)NCCc1ccc(Cl)cc1,15.6%
2,Cc1nccc2[nH]c(=O)c(C(=O)NC3CCCCC3C)cc12 (stereo not shown),12.2%
3,COc1ccc(CCC(=O)N2CCN(c3ccccc3)CC2)cc1OC,13.5%
4,CCc1noc(C)c1C(=O)NNC(=O)c1nn(C)c(=O)c2ccccc12,-12.2%
5,O=C(NS(=O)(=O)Oc1ccccc1F)OC[C@@H]1CCCN2CCCCC12 (stereo partly shown),19.2%
6,O=S(=O)(NCc1ccccc1)c1ccc(S(=O)(=O)N(Cc2cccs2)CC2CCCO2)cc1 (stereo not shown),10.8%
7,COc1cccc2c1Oc1ncccc1N(C(=O)CCC(=O)NCc1ccc(F)cc1)C2,15.5%
8,Cc1ccc(N(CC(=O)NCC2CCCO2)C(=O)CCC(=O)Nc2ccccn2)cc1C (stereo not shown),4.97%
9,CC(=O)c1c(C)[nH]c(C2=NNC(=NC(C)(C)C)SC2)c1C,21.5%
10,Cc1[nH]c2ccccc2c1/C=C(\C#N)C(=O)NC(C)c1ccccc1 (stereo not shown),17.3%
11,O=C(CSc1nnc(-c2cccc(Br)c2)o1)N1CCOCC1,16.7%
12,COc1cc(C=C2C(=O)c3ccccc3C2=O)cc(OC)c1,14.7%
13,COc1cc(NC(=O)c2sc3ncn(CC(=O)N4CCCC(C)C4)c(=O)c3c2C)cc(OC)c1OC (stereo not shown),23%
14,Cc1oc(-c2ccccc2F)nc1CS(=O)CC(=O)NCc1ccc2c(c1)OCO2 (stereo not shown),1.79%
15,Cc1ccnc(SCc2cc(=O)c(OC(=O)c3ccc(Cl)c([N+](=O)[O-])c3)co2)n1,2.7%
16,Cc1onc(-c2ccccc2Cl)c1C(=O)Oc1cc(N)n(S(=O)(=O)c2ccc(F)cc2)n1,1.76%
17,NS(=O)(=O)c1cc2c(cc1Cl)NC(CSCc1ccccc1)=NS2(=O)=O,16.7%
18,COc1ccc(N2CCN(C(c3ccccc3)c3sc4nc(C)nn4c3O)CC2)cc1 (stereo not shown),-3.28%
19,O=C(NNC(=O)c1ccccc1Cl)c1ccc2c(=O)n3c(nc2c1)CCC3,7.44%
20,COc1ccc(NC(=O)C2CCC(CNc3c(N4CCCCC4)c(=O)c3=O)CC2)cc1OC (stereo not shown),1.14%
21,C/C=C(\C)C(=O)Nc1cccc(C2=NOC3(C2)C[C@@H](C(N)=O)N(C(=O)/C(C)=C/C)C3)c1 (stereo partly shown),2.6%
22,CCOC(=O)N1CCN(C(=O)c2cc(S(=O)(=O)N3CCCC3)cn2C)CC1,-0.48%

row,Compound,"hERG current change (%, negative = inhibition) at 1uM"
1,COc1ccc(NC(=O)c2ccc(NC(=O)c3ccco3)cc2)c(OC)c1,14.5%
2,O=c1ccc2c(-c3ccccc3)c3ccc(O)cc3oc-2c1,12.2%
3,CCOc1ccc(S(=O)(=O)Nc2nc3ccccc3nc2Cl)cc1,-1.69%
4,O=C1NC(=O)C(CCc2ccncc2)(c2ccccc2)C(=O)N1,12.5%
5,O=C(COC(=O)CSc1cc(Cl)ccc1Cl)NCc1ccc2c(c1)OCO2,14.9%
6,Cc1cc(S(=O)(=O)N2CCN(c3ncccn3)CC2)ccc1-n1cnnn1,11.1%
7,Cn1nc(C(=O)NNC(=O)CCc2ccccc2Cl)c2ccccc2c1=O,-3.08%
8,O=C(CSc1nc2ccccc2c(=O)[nH]1)N1CCN(S(=O)(=O)c2ccccc2)CC1,4.66%
9,CS(=O)(=O)c1nc(-c2ccccc2)c(-c2ccccc2)[nH]1,14.6%
10,CCOC(=O)C1/C(=N\O)CC(C)(O)C(C(=O)OCC)C1c1ccc(OC)c(OC)c1 (stereo not shown),3.01%
11,CCCS(=O)(=O)n1nc(-c2ccc(Br)cc2)cc1N,17.4%
12,Cc1ccc(SCC(=O)OCC(=O)N(C)C2CCS(=O)(=O)C2)cc1C (stereo not shown),3.61%
13,CCOC(=O)N1CCN(C(=O)CSc2ccc3nnc(CCNC(=O)c4ccc(OC)cc4)n3n2)CC1,0.711%
14,Cc1ccc(C)c(OCCC(=O)OCC(=O)Nc2cc(S(=O)(=O)N3CCOCC3)ccc2C)c1,11.9%
15,Cc1ccc(C(C)C)c(OCC(=O)N/N=C/C2CCCCC2)c1,0.408%
16,CCOC(=O)C1C(=O)CC(C)(O)C(C(=O)OCC)C1c1ccc(F)cc1 (stereo not shown),14%
17,COc1cc(C(Nc2ccc(S(=O)(=O)NCC3CCCO3)cc2)C(=O)NC(C)(C)C)cc(OC)c1OC (stereo not shown),18.1%
18,COc1ccc(C(c2c(C)[nH]n(-c3ccccc3)c2=O)c2c(C)[nH]n(-c3ccccc3)c2=O)cc1OC,0.003%
19,COc1cccc(CNc2ccc3[nH]c(=O)[nH]c3c2)c1OCc1ccccc1F,16.3%

# — publication PMC4336329 (PLoS ONE, 2015)
